This note sets out measurements from the supplement of paper PMC10126150.

Sequences with one replicate were seen in a single cluster, so their values are uncertain.

The test system of the data set is ATP. In words: switch fluorescence ratio, 500 uM ATP over buffer (Cy3 cluster intensity, sum of 5 cycles each) (fold (ratio)); higher = stronger signal-on switching upon ATP binding; sequences stand for … in TCGTCGGCAGCGTCAGATGTGTATAAGAGACAGTTTTTTTTTTTTTTTTTTTTTTTTT…TC. To be noted: aptamer strand: ATP DNA aptamer (quencher-CACCTGGGGGAGTATTGCGGAGGAAGG + anchor), 100 nM annealed; ATP concentration: 500 uM; one replicate. The method in brief:
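Between each of five buffer/ATP cycles, the flow-cell was stripped with NaOH and re-annealed. Each cycle imaged Cy3-labelled switching-strand clusters, annealed to 100 nM quencher-labelled ATP aptamer on a modified Illumina MiSeq flow-cell, first in selection buffer and then after 15 min with 500 uM ATP at 22 °C. The fluorescence ratio is summed target-cycle over summed buffer-cycle Cy3 intensity per cluster, averaged per switch-domain sequence, with clusters outside 100-1000 RFU excluded.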
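Further: ATP exposure 15 min at 22 °C before imaging.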

With GTTCTATGTT, the switch fluorescence ratio was 1.04.
With GCATACAGTG the figure was 1.03; with ACAGGGCGAC, 0.991.
With AGGCGCCGTT the figure was 1.03; with GCCCGATCAG, 0.978.
Turning to TGGGTTGAA, the switch fluorescence ratio was 0.982.
In the case of CCTATGGGTA, the switch fluorescence ratio is 0.991.
Consider GCGCCGGGTC, for which the switch fluorescence ratio turned out to be 0.964.
Then ACAAAAAAAG, with 0.978.
Take GAATGTGTTG: the switch fluorescence ratio worked out at 0.925.
With GTCGATCGGC, the switch fluorescence ratio was found to be 1.07.
For CCGTATTTCG, the switch fluorescence ratio came to 0.999.
Then ATCATACTCG, with 1.06.
In the case of CTTACGCCTG, the switch fluorescence ratio turned out to be 1.
For GCTGGGAAGT, the switch fluorescence ratio came out at 0.956.
Then TGAC, with 1.03.
With TGGGACGGGA the figure was 1.02; with CGGACTAGCA, 1.14; with CAGAACTCT, 1.01.
With TCGGGTATT the figure was 0.977; with CGGCACATGG, 1.16; with TCGGTGAAGG, 0.987.
On to GGGGGCCCAA, for which the switch fluorescence ratio came to 0.983.
Then GTTGGTTTT, with 0.991; and ATGCCAGATC, with 1.04; and TCCTACCCTG, with 1.1.
For ACGCGCCGTT, the switch fluorescence ratio was 1.03.
With TCCTAGGGAT the figure was 0.996; with CGGTGTGCTG, 0.903; with TTCGACGAGT, 1.02.
With AGATGTCTAG the figure was 0.987; with CGGCTTAATT, 0.945; with AAATGTCGT, 0.963.
Regarding TAGCCCAGGG, the switch fluorescence ratio was 1.66.
With TCGCACTTGA the figure was 1.06.
Then ACGCTGCGAA, with 1.07; and TACGGATTGA, with 1.03.
For the sequence TCAAACGTCC, the switch fluorescence ratio was determined as 1.08.
Regarding ATTTTAGTCT, the switch fluorescence ratio was 0.981.
On to CGGAAGTAGT, for which the switch fluorescence ratio turned out to be 0.99.
Then GCCGCTGTAT, with 1.19.
As to TACAGCCTGG, the switch fluorescence ratio stood at 1.02.
Regarding TAGCTTGTTA, the switch fluorescence ratio amounted to 0.975.
As for ACGGGGCACT, the switch fluorescence ratio came out at 1.03.
Consider GCCAGATGTT, for which the switch fluorescence ratio came out at 0.953.
With GTCATGGGCG, the switch fluorescence ratio stood at 0.985.
As to GTCAAAAGGA, the switch fluorescence ratio came to 1.02.
Consider AGTTGAACCG, for which the switch fluorescence ratio is 1.02.
With TCCCCCTTGG the figure was 2.26; with ATTTGTGATC, 1.03; with AACATTTATC, 1.01.
With AGAGTCCAGA the figure was 0.947; with TGGTCGGTAC, 1.11.
For the sequence AGGCTTCAC, the switch fluorescence ratio came to 1.02.
Then GCTTACAATA, with 1.03; and TCTCTTTATA, with 0.963; and TAAGAGTGAG, with 1.05.
With TACTATAGTT, the switch fluorescence ratio was 0.997.
Then ATTGGTGGGT, with 0.984.
GTGAAGGTTC: the switch fluorescence ratio is 0.996.
With AAAGTCTATG the figure was 1; with ATGGATCT, 0.956.
Consider TAATACAACT, for which the switch fluorescence ratio was 1.03.
Regarding ACAGAATAAA, the switch fluorescence ratio stood at 1.
Then TTTGTAGGT, with 0.994.
For the sequence AAACTCGTTA, the switch fluorescence ratio stood at 0.989.
Turning to CGTTTAGGAG, the switch fluorescence ratio came out at 0.969.
